According to PubChem BioAssay AID1768 (National Center for Advancing Translational Sciences (NCATS), 2009):
Among all 270,000 compounds or so, about 620 (0.23%) were called active. Inconclusive means that the source gave no clear call. Such entries were picked first, then a sample of the others. Calls follow the shape of the dose curve; as a rule, active = well fitted inhibition curve with a large enough effect in the polarisation, with a control signal flat (not every such curve was filed as active); inconclusive = small, poorly fitted or top-dose-only effect, or effect the other way, or a change in a side signal; inactive = no such curve, though single readings can be large or run the other way; the % refers to the polarisation. Potencies of inconclusive entries are doubtful fits and often do not repeat. “Side channel” marks fits to a control or component signal instead of the main read-out.
Potency is read from the fitted curve at half-maximal effect; tags tell the direction and shape of the fitted curve or compound fluorescence and quenching.

Each molecule was assayed against Menin (Homo sapiens) (UniProt O00255) (assay: qHTS Assay for Inhibitors Targeting the Menin-MLL Interaction in MLL Related Leukemias: Competition With Texas Red Labeled MLL-derived Mutant Peptide). Conditions: fluorescence polarization; series mostly up to 61.6 µM.
Chain of UniProt O00255 (O00255 whole entry, looked up): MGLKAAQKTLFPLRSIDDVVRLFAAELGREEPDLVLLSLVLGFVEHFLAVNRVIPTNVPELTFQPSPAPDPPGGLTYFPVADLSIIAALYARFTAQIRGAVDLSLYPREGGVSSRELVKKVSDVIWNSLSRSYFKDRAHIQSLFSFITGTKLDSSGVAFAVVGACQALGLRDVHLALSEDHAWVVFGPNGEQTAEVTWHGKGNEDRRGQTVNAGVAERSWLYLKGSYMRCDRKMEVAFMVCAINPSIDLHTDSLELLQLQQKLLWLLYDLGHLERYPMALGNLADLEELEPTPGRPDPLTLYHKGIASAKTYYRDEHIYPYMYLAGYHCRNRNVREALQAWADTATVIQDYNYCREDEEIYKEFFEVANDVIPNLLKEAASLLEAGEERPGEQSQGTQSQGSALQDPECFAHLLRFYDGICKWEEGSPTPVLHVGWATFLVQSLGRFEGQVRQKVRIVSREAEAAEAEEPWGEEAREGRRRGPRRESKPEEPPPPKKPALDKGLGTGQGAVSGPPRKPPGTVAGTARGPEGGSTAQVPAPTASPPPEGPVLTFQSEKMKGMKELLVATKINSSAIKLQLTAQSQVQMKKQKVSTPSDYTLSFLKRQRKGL
In the case of `COc1ccc(-c2noc(CSc3nc(-c4ccccc4)cc(=O)[nH]3)n2)cc1`, the Potency is reported as inconclusive: 39.8 µM [quencher, side channel, single point]. For `COc1ccc(NC(=O)Nc2ccc3nccnc3c2)cc1`, the Potency was inconclusive: 28.2 µM [quencher, side channel, single point]. `c1ccc2c(-c3nc(C4CCCCC4)no3)cc(-c3ccncc3)nc2c1` was tested, and the Potency was inconclusive: 0.708 µM [inhibitor, full curve, poor fit]. For `CCC/C=C1\CCCOC(C(=O)NCc2ccccc2)(C(F)(F)F)C1` (centres undefined), the Potency was “inactive”. For `O=c1c(Cc2ccc(Cl)cc2Cl)c(O)ccn1CC(F)(F)F`, the Potency was inconclusive: 0.355 µM [inhibitor, full curve, poor fit]. `Cc1cccc(NC(=S)NCC(C)CSc2ccc(Cl)cc2)c1` (centres undefined) was tested, and the Potency was inconclusive: 39.8 µM [quencher, side channel, single point]. In the case of `O=C(CCc1ccccc1)Nc1ncc([N+](=O)[O-])s1`, the Potency is reported as inconclusive: 15.8 µM [quencher, side channel, partial curve]. `COc1ccccc1NC(=S)NC(=O)/C=C/c1ccco1` was tested, and the Potency was inconclusive: 39.8 µM [quencher, side channel, single point]. For `CCCCN(CCCC)S(=O)(=O)c1ccc(C(=O)Nc2nnc(CSC)o2)cc1`, the Potency was inconclusive: 20 µM [quencher, side channel, single point]. With `CSCC[C@H](NC(=O)[C@H](Cc1ccccc1)n1c(=O)[nH]c2ccccc2c1=O)C(=O)N[C@@H](Cc1ccccc1)C(=O)O` the Potency was “inactive”. `O=C(C[n+]1cc(-c2ccccc2)n2c1CCC2)Nc1nc(-c2ccccc2)cs1` was tested, and the Potency was inconclusive: 2.51 µM [inhibitor, full curve]. For `CCOC(=O)c1ccc(CC(=O)c2oc3cc(O)ccc3c2C)o1`, the Potency was “inactive”. For `CCOC(=S)SSC(=S)OCC`, the Potency was “inactive”. For `CCOc1cccc(-c2nnc3sc(COc4ccc(Cl)cc4)nn23)c1`, the Potency was inconclusive: 35.5 µM [fluorescent, side channel, single point]. `COc1cc2c(cc1OC)CN(CC(=O)NC(=O)NC1CCCCC1)CC2` was tested, and the Potency was inconclusive: 7.08 µM [fluorescent, side channel, partial curve]. With `CCOc1ccccc1N1CCN(Cc2cccc(OC)c2O)CC1` the Potency was inconclusive: 25.1 µM [inhibitor, partial curve, poor fit]. With `O=C(/C=C1\SC(=O)N(CC(=O)Nc2ccc(F)cc2)C1=O)Nc1ccc(Cl)cc1` the Potency was inconclusive: 12.6 µM [quencher, side channel, partial curve]. `CCS(=O)(=O)c1ccc2oc(SCC(=O)Nc3ccc(OC)c(OC)c3)nc2c1` was tested, and the Potency was inconclusive: 7.94 µM [inhibitor, full curve]. For `c1ccc(Nc2cc(Nc3ccccc3)[nH]n2)cc1`, the Potency was inconclusive: 14.1 µM [quencher, side channel, partial curve]. For `CCN1CCN(C(c2cccs2)C(C)NS(=O)(=O)c2ccc(C)cc2)CC1` (centres undefined), the Potency was “inactive”. In the case of `COc1cc(NC(=O)COc2cc(O)c3c(c2)OC(C)(C)CC3=O)cc(OC)c1`, the Potency is reported as inconclusive: 39.8 µM [quencher, side channel, single point]. For `COc1ccc(N(C(=O)Cc2cccs2)C2C=CS(=O)(=O)C2)cc1` (centres undefined), the Potency was inconclusive: 39.8 µM [quencher, side channel, single point]. `O=C(Cn1c(=S)[nH]c2ccccc2c1=O)NCCc1ccccc1` was tested, and the Potency was inconclusive: 22.4 µM [inhibitor, partial curve]. With `CNS(=O)(=O)c1ccc(NC(=S)Nc2ccc3c(c2)OCO3)cc1` the Potency was inconclusive: 28.2 µM [quencher, side channel, single point]. `CCn1cc(C(=O)NCc2ccc3c(c2)OCO3)c(=O)c2cc(F)c(N3CCN(C)CC3)cc21` was tested, and the Potency was inconclusive: 39.8 µM [inhibitor, single point]. In the case of `CC(C)CCCC(C)NS(=O)(=O)Cc1ccccc1` (centres undefined), the Potency is reported as inconclusive: 5.62 µM [fluorescent, side channel, partial curve]. In the case of `Cc1ccc(C2=NS(=O)(=O)N(C)C(C(=O)Nc3ccc4c(c3)OCO4)=C2)cc1`, the Potency is reported as inconclusive: 35.5 µM [quencher, side channel, partial curve]. With `Cc1ccc(C(=O)Nc2ccc3c(c2)OCO3)o1` the Potency was “inactive”. In the case of `N#C/C(=C(/O)CSc1ncn[nH]1)c1nc2ccccc2[nH]1`, the Potency is reported as inconclusive: 14.1 µM [quencher, side channel, partial curve]. With `Clc1nc(-c2ccccc2)cc(-c2ccccc2)n1` the Potency was inconclusive: 31.6 µM [quencher, side channel, single point]. In the case of `Cc1ccnc(NCc2cccc3ccccc23)c1`, the Potency is reported as inconclusive: 8.91 µM [inhibitor, partial curve, poor fit]. In the case of `O=S(=O)(c1ccc(N2CCN(S(=O)(=O)c3ccccc3)CC2)nc1)N1CCCC1`, the Potency is reported as inconclusive: 35.5 µM [fluorescent, side channel, single point]. For `COc1ccc(-c2csc(Nc3ncccc3C)n2)cc1OC`, the Potency was inconclusive: 25.1 µM [quencher, side channel, single point]. In the case of `Cc1c(C(=O)N/N=C/c2ccc(O)c(Br)c2)sc(N)c1C#N`, the Potency is reported as inconclusive: 25.1 µM [quencher, side channel, single point]. With `CC(/C=N/NC(=O)CSc1nc(C)cc(C)n1)=C\c1ccccc1` the Potency was inconclusive: 1.78 µM [inhibitor, full curve, poor fit]. For `CC1=NOC(=O)/C1=C/c1ccc(-c2ccc(Cl)cc2)o1`, the Potency was inconclusive: 25.1 µM [quencher, side channel, single point]. With `O=C1c2ccccc2C(=O)C1c1ccc(Br)cc1` the Potency was inconclusive: 28.2 µM [quencher, partial curve]. With `CN(C(=O)COc1ccccc1C(=O)NCCc1ccccc1)c1ccccc1` the Potency was inconclusive: 0.708 µM [fluorescent, side channel, full curve, poor fit]. `CCOC(=O)N1CCC(NC(=O)C(CC(C)C)NC(=O)C2CCC(C)CC2)CC1` (centres undefined) was tested, and the Potency was inconclusive: 31.6 µM [fluorescent, side channel, single point]. `CCNC(=S)NNC(=O)c1cc(-c2cccc(OCC)c2)nc2ccccc12` was tested, and the Potency was inconclusive: 28.2 µM [quencher, side channel, single point]. `COc1ccc(OC)c(Nc2cc(C)c3ccccc3n2)c1` was tested, and the Potency was inconclusive: 31.6 µM [quencher, side channel, partial curve]. In the case of `Cc1onc(-c2c(F)cccc2Cl)c1C(=O)NNC(=O)C1CCN(Cc2cccc(F)c2)CC1`, the Potency is reported as inconclusive: 15.8 µM [inhibitor, partial curve]. For `CCOC(=O)C1(CCc2ccccc2)CCN(C(=O)c2occc2C)CC1`, the Potency was inconclusive: 6.31 µM [fluorescent, side channel, partial curve]. `O=C(Cn1nnc(-c2ccncc2)n1)N(C1CCCCC1)C1CCCCC1` was tested, and the Potency was inconclusive: 25.1 µM [inhibitor, single point]. In the case of `O=C(c1ccc(Cl)c(Cl)c1)N1CCN(Cc2ccc3c(c2)OCO3)CC1`, the Potency is reported as inconclusive: 12.6 µM [fluorescent, side channel, partial curve]. For `Oc1ccccc1CNCCCN1CCOCC1`, the Potency was inconclusive: 1.58 µM [inhibitor, partial curve, poor fit]. With `COc1cc2c(cc1NC(=O)C(C)Sc1ccc(NC(C)=O)cc1)oc1ccccc12` (centres undefined) the Potency was inconclusive: 17.8 µM [quencher, side channel, partial curve]. `COc1ccc(-c2c(C#N)c(SCC(=O)c3cc4ccccc4oc3=O)nc(C)c2C(=O)Nc2ccccc2)cc1` was tested, and the Potency was inconclusive: 12.6 µM [quencher, side channel, partial curve]. With `COc1ccc(C(=O)Nc2ccc(NC(=O)c3ccccc3OC)nc2)cc1` the Potency was inconclusive: 39.8 µM [inhibitor, single point]. In the case of `COCCCNC(=O)CCc1c(C)c2cc3c(C)coc3cc2oc1=O`, the Potency is reported as inconclusive: 10 µM [inhibitor, partial curve]. With `COc1cc(CN2CCCCC2C(=O)Nc2ccc(Oc3ccccc3)nc2)ccc1O` (centres undefined) the Potency was inconclusive: 3.16 µM [inhibitor, full curve, poor fit]. `Cn1nccc1C(=O)OCC(=O)Nc1nc(-c2ccccc2)cs1` was tested, and the Potency was inconclusive: 15.8 µM [quencher, side channel, partial curve]. With `O=C(c1ccco1)N1CCC2(CC1)CN(c1ccccn1)C2` the Potency was “inactive”. `CCc1ccc(-c2csc(NC(=O)COC(=O)CCc3nc4ccccc4s3)n2)cc1` was tested, and the Potency was inconclusive: 1.78 µM [inhibitor, full curve]. With `COc1ccc(N2C(N)=NC(N)=NC23CCCC3)cc1` the Potency was “inactive”. In the case of `O=C(CSc1ccc2c(c1)OCCO2)Nc1ccc(Br)cc1`, the Potency is reported as inconclusive: 31.6 µM [quencher, side channel, single point]. In the case of `CCCN(CCC)C(=S)NC(=O)c1ccc(Cl)cc1Cl`, the Potency is reported as inconclusive: 5.01 µM [inhibitor, single point]. For `O=C(Nc1nnc(-c2ccccc2Cl)o1)c1ccc(S(=O)(=O)N2CCCCCC2)cc1`, the Potency was inconclusive: 17.8 µM [quencher, side channel, partial curve]. `NC(=O)c1ccc[n+](CC(=O)OCCC23CC4CC(CC(C4)C2)C3)c1` was tested, and the Potency was inconclusive: 2.24 µM [inhibitor, partial curve].
